PubChem BioAssay AID588579 (National Center for Advancing Translational Sciences (NCATS), 2011)
Where “and” joins values, the source holds several entries; their conditions need not be identical. Equal values may be shown once. Among all 400,000 compounds or so, about 2,200 (0.55%) were called active. The shares of active, inactive and inconclusive entries below differ from those in the screen. The call rests on the fitted dose curve; in most records, active means well fitted inhibition curve with a large enough effect; inconclusive means small, poorly fitted or top-dose-only effect, or another doubt; inactive means no such curve, though single readings can be large or run the other way. Potencies beside an inconclusive call are fits to weak or partial responses and may not hold up. A structure can be active in one record and inactive in another.

Molecular target: DNA polymerase kappa (Homo sapiens) (UniProt Q9UBT6)
Experiment: qHTS for Inhibitors of Polymerase Kappa
Details: purified Pol kappa, fluorescent DNA synthesis assay, 10 min; series mostly up to 107 µM; activity, negative = inhibition: at the top concentration
Procedure, shortened: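 Activity was followed as the change in fluorescence between reads at 0 and 10 min after starting the reaction with 50 nM substrate. Beforehand, 10 nM polymerase had been preincubated with compound for 15 min at room temperature.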
On the % scale 0 is the no-effect control and ±100 the full control effect; potency means the concentration at half of the fitted maximal effect; tags describe the fitted curve by direction and shape.

Chain of UniProt Q9UBT6 (Q9UBT6 whole entry, looked up): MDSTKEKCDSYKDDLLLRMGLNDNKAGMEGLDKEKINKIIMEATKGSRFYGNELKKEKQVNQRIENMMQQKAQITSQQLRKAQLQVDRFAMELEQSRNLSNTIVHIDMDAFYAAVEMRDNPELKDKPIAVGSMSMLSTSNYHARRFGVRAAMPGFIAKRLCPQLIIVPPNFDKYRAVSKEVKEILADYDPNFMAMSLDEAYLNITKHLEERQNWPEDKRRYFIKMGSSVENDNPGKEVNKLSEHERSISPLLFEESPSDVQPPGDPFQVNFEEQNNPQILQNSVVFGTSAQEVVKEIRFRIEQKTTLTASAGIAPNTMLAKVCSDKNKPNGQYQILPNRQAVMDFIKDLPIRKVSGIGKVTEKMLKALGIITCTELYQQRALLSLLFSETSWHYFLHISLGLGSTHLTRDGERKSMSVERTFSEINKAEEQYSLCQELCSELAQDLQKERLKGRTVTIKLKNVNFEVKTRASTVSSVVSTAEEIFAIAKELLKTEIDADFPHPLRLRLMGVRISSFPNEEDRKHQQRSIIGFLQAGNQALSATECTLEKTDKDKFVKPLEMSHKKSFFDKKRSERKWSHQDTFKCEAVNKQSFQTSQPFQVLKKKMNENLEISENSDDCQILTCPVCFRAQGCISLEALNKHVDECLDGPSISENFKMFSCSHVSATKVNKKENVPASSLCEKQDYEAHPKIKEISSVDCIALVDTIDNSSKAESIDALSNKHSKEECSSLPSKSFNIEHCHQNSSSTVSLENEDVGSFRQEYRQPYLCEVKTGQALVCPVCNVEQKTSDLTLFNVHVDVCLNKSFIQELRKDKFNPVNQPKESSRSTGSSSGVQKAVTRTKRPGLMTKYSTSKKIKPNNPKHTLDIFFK

Structure (SMILES)	Potency	activity, negative = inhibition
COCCCNc1c2c3c(cccc3[nH]c1=O)C(=O)c1ccccc1-2	inconclusive: 14.1 µM [inhibitor, partial curve, poor fit]	–
CC(C)C(NC(=O)/C(=C/c1ccco1)NC(=O)c1ccc(Br)o1)C(=O)O (configuration not stated)	inconclusive: 79.4 µM [inhibitor, partial curve, poor fit]	–
CCCCC1=CC2=CC(=O)C(C)(OC(=O)c3cccs3)C(=O)C2=CO1 (configuration not stated)	inconclusive: 56.2 µM [inhibitor, partial curve, poor fit]	–
CCc1ccc(C(=O)c2cn(CC(=O)Nc3ccc(Cl)cc3)c3cc4c(cc3c2=O)OCO4)cc1	–	inactive: 0.0741%
O=C(O)c1ccccc1-c1ccc(/C=c2\sc3nc4cc(Br)cnc4n3c2=O)o1	active: 3.55 µM	–
COc1cccc(NC(=O)Cn2nnc(C(=O)NCc3cccs3)c2N)c1	inconclusive: 3.98 µM [inhibitor, partial curve, poor fit]	–
COCc1ccc(CN2CCC(C(=O)Nc3cccc(-c4cscn4)c3)CC2)o1	–	inactive: -4.59%
O=C(COC(=O)Cc1c(Cl)cccc1Cl)NCc1ccco1	inconclusive: 89.1 µM [inhibitor, partial curve, poor fit]	–
CCOc1cc(/C=C(\C#N)C(=O)Nc2cccc(C(=O)O)c2)cc(Br)c1OC(=O)c1ccc(OC)cc1	inconclusive: 89.1 µM [inhibitor, single point]	–
CC1=Nc2ccccc2/C1=C/c1sc(=N)n(-c2nccs2)c1O	–	inactive: -15%
O=C(N/C=C/c1ccco1)NCc1ccccc1	active: 35.5 µM	–
Nc1ccc(N)c(C(=O)O)c1	active: 6.31 µM	–
CC(=O)/C(N=Nc1ccc(C(=O)O)cc1)=C(\C)O	–	inactive: -3.14%
COc1ccc(-n2ncc(C(=O)N3CCN(Cc4ccccc4)CC3)c2C2CCN(C(=O)OC(C)(C)C)CC2)cc1	–	inactive: 5.16%
COc1ccccc1OCc1nc2ccccc2[nH]1	inconclusive: 89.1 µM [inhibitor, partial curve, poor fit]	–
CNc1nc(-c2ccccc2C)nc2ccccc12	–	inactive: 2.16% [at 60.1 µM]
COc1cccc(NC(=O)Nc2ccc3nc(N4CCN(C)CC4)cc(C)c3c2)c1	–	inactive: -15% [at 60.1 µM]
Cc1ccccc1NC(=O)CSc1ccsc1[N+](=O)[O-]	active: 35.5 µM	–
O=C(CSCc1cnn(-c2ccccc2)c1-n1cccc1)NCc1ccc(F)cc1	–	inactive: 4.8%
CCCCCCCCCCCCCCCCOC(=O)N1CCN(/[N+]([O-])=N/Oc2ccc([N+](=O)[O-])cc2[N+](C)=O)CC1	–	inactive: 7.77%
COc1cccc(C(=O)OCC(=O)Nc2sc3c(c2C(N)=O)CCC3)c1O	active: 79.4 µM	–
CCCCC(=O)OC1CCC2C3CCc4cc(O)ccc4C3CC[C@]12C (some centres not stated)	inconclusive: 13.4 µM [inhibitor, partial curve]	–
CCOc1ccc(-c2nnc(SCC(=O)N3CCNC3=O)o2)cc1	–	inactive: 5.48%

Structure (SMILES)	Potency	activity, negative = inhibition
COc1ccc2[nH]cc(CCNc3ncnc4ccc(-c5ccoc5)cc34)c2c1	inconclusive: 20 µM [inhibitor, partial curve, poor fit]	–
O=c1c(-c2cccs2)nc2cnc(N3CCNCC3)nc2n1CCc1ccccc1	inconclusive: 28.2 µM [inhibitor, single point]	–
O=C(O)c1ccc(CCN2CCN(CC=Cc3ccc(Cl)cc3)CC2)cc1	inconclusive: 37.7 µM [inhibitor, single point]	–
CCN(N=O)[C@@H](Cc1ccccc1)CN(N=O)[C@@H](Cc1ccccc1)CN(C)N=O	–	inactive: -9.66%
NCCCC[C@H](NC(=O)[C@@H]1CCCN1C(=O)[C@H](CO)NC(=O)[C@H](CC(=O)O)NC(=O)CNC(=O)[C@H](CCCN=C(N)N)NC(=O)CN)C(=O)O	inconclusive: 37.7 µM [inhibitor, single point]	–
CC(=O)c1ccc(OC(C)C)c(CSC(=N)N)c1	inconclusive: 79.4 µM [inhibitor, partial curve, poor fit]	–
Cn1nc(C(=O)Nc2ccc(S(=O)(=O)Nc3ncccn3)cc2)ccc1=O	inconclusive: 100 µM [inhibitor, single point]	–
Cc1ccc(Cl)cc1NC(=O)c1ccc(NC(=O)N2CCSc3ncccc32)cc1	–	inactive: -23.3%
COc1ccc(/C=N/NC(=O)c2ccc(Cl)cc2)cc1Cn1cc(Cl)cn1	inconclusive: 89.1 µM [inhibitor, partial curve, poor fit]	–
CC(=O)N1c2ccc(S(=O)(=O)N3CCCCCC3)cc2CC1C(=O)NCc1ccccc1 (configuration not stated)	–	inactive: -10.2% [at 60.1 µM]
Cc1oc(C(=O)O)cc1COc1cccc2cccnc12	inconclusive: 56.2 µM [inhibitor, partial curve, poor fit]	–
O=C(CSc1nc2ccc(Cl)cc2[nH]1)N1CCN(C(=O)c2ccco2)CC1	inconclusive: 89.1 µM [inhibitor, partial curve, poor fit]	–
CC(=O)N1CCOc2ccc(S(=O)(=O)N3CCN(c4cc(C)ccc4C)CC3)cc21	–	inactive: -9.58%
O=C(N/N=C/c1ccc2c(c1)OCO2)c1cc(-c2ccco2)nc2ccccc12	inconclusive: 89.1 µM [inhibitor, partial curve]	–
COc1ccc(C(=O)N/N=C/c2ccc(OC(=O)c3cccc4ccccc34)c([N+](=O)[O-])c2)cc1	inconclusive: 89.1 µM [inhibitor, single point]	–
COC(=O)c1ccc(NS(=O)(=O)c2ccc3[nH]c(=O)oc3c2)cc1	inconclusive: 89.1 µM [inhibitor, single point]	–
CN(c1ccccc1C(=O)O)S(=O)(=O)c1ccc2c3c(cccc13)C(=O)N2	active: 79.4 µM	–
Cc1cccc(NC(=O)CN2C(=O)N/C(=C\c3ccc(-c4cccc(C(=O)O)c4)o3)C2=O)c1	inconclusive: 79.4 µM [inhibitor, single point]	–
O=C(O)c1cc(N(Cc2ccccc2O)Cc2cc(O)ccc2O)ccc1O	active: 28.2 µM and active: 11.2 µM	–
O=c1cc(-c2ccc(O)c(O)c2)oc2ccccc12	active: 14.1 µM	–
NC(=O)N/N=C/c1ccc(-c2ccc(S(=O)(=O)Nc3ncccn3)cc2)o1	inconclusive: 100 µM [inhibitor, single point]	–
C#CCN1C(=O)S/C(=C\c2ccc(-c3ccc(Cl)c(C(=O)O)c3)o2)C1=O	active: 35.5 µM	–
COc1ccc(CN(C(=O)COc2ccccc2)c2ccccc2C(=O)O)cc1	–	inactive: -0.83%

Structure (SMILES)	Potency	activity, negative = inhibition
C/C(C/C(C)=C1/SC(=S)NC1=O)=C1\SC(=S)NC1=O	active: 20 µM	–
COc1cc(/C=N/NC(=O)c2sc(N)c(C#N)c2C)ccc1O	inconclusive: 89.1 µM [inhibitor, partial curve]	–
CN(C)c1ccc(C2SCCN2C(=O)c2ccc([N+](=O)[O-])cc2)cc1 (configuration not stated)	–	inactive: 0.49%
CN(CC(=O)O)c1ccc(/C=C2\C=Cc3ccccc32)cc1	active: 56.2 µM	–
COc1ccc(S(=O)(=O)c2c(N)n(Cc3ccco3)c3nc4ccccc4nc23)cc1	active: 25.1 µM	–
O=C(OCc1cc(=O)n2nc(-c3cccs3)sc2n1)c1cccc(Cl)c1	–	inactive: -12.9%
Cc1c(CC(=O)N[C@@H](C)C(=O)O)c(=O)oc2c(C)c3occ(-c4ccccc4)c3cc12	inconclusive: 100 µM [inhibitor, single point]	–
C/C(=N\NC(=O)CN(c1ccccc1Br)S(C)(=O)=O)c1ccc2c(c1)OCCO2	inconclusive: 100 µM [inhibitor, single point]	–
O=C(Nc1nc(-c2ccccc2)cs1)C1CCCCN1S(=O)(=O)c1ccc(Cl)cc1 (configuration not stated)	inconclusive: 79.4 µM [inhibitor, partial curve, poor fit]	–
N#C/C(=C\c1ccc(O)c(O)c1)C(=O)NCCCc1ccccc1	inconclusive: 14.1 µM [inhibitor, partial curve, poor fit]	–
C=C1c2cccc(O)c2C(O)=C2C(=O)[C@]3(O)C(O)=C(C(N)=O)C(=O)[C@@H](N(C)C)[C@@H]3[C@@H](O)[C@H]12	active: 6.31 µM	–
COc1cc(/C=C2\SC(=S)N(c3cccnc3)C2=O)ccc1O	inconclusive: 89.1 µM [inhibitor, partial curve, poor fit]	–
CCOc1ccc2nc3cc(N=Nc4ccc(N)nc4N)ccc3c(N)c2c1	inconclusive: 44.7 µM [inhibitor, partial curve]	–
COc1ccc(C(=O)Nc2cccc(NC(C)=O)c2)cc1OC	inconclusive: 89.1 µM [inhibitor, single point]	–
COc1cc(/C=N/NC(=O)c2cc(-c3cccn3C)n[nH]2)cc(OC)c1OC	inconclusive: 20 µM [inhibitor, full curve]	–
Cc1nc2ccc3nc(NC(=O)C4COc5ccccc5O4)sc3c2s1 (configuration not stated)	inconclusive: 100 µM [inhibitor, single point]	–
CCN(CC(=O)Nc1c(F)cccc1F)C(=O)C1CCN(S(=O)(=O)c2ccccc2C(=O)OC)CC1	inconclusive: 89.1 µM [inhibitor, partial curve, poor fit]	–
COc1ccc(S(=O)(=O)N2Cc3ccccc3CC2C(=O)O)cc1 (configuration not stated)	inconclusive: 89.1 µM [inhibitor, single point]	–
C/C=C/C=C\C(=O)Nc1cccc(C2=NOC3(C2)C[C@H](C(N)=O)N(C(=O)/C=C/C)C3)c1 (some centres not stated)	inconclusive: 79.4 µM [inhibitor, single point]	–
Cc1ccc(-c2cn3c(n2)sc2cc(C(=O)NC4CCCCCC4)ccc23)cc1	–	inactive: -14.6%
O=C(COc1ccc2c(-c3ccccc3)cc(=O)oc2c1)Nc1ccc(CCO)cc1	inconclusive: 79.4 µM [inhibitor, partial curve]	–
